Experimental findings from paper PMC4336329 (PLoS ONE, 2015) are described below.

Each structure is given as a SMILES string. In all, about 310,000 compounds went through this assay and about 14,000 (4.5%) showed an effect of 50% or more. The effect is printed as a negative number. Some of the results follow.
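Further: peak tail current of the secondary pulse compared with the same well before compound.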

The target of the assay is human ether-à-go-go-related gene (hERG) potassium channel (human, UniProt Q12809). The assay can be described thus: primary screen, population patch clamp on CHO cells stably expressing hERG.
Chain of human ether-à-go-go-related gene (hERG) potassium channel (Q12809 whole entry, looked up): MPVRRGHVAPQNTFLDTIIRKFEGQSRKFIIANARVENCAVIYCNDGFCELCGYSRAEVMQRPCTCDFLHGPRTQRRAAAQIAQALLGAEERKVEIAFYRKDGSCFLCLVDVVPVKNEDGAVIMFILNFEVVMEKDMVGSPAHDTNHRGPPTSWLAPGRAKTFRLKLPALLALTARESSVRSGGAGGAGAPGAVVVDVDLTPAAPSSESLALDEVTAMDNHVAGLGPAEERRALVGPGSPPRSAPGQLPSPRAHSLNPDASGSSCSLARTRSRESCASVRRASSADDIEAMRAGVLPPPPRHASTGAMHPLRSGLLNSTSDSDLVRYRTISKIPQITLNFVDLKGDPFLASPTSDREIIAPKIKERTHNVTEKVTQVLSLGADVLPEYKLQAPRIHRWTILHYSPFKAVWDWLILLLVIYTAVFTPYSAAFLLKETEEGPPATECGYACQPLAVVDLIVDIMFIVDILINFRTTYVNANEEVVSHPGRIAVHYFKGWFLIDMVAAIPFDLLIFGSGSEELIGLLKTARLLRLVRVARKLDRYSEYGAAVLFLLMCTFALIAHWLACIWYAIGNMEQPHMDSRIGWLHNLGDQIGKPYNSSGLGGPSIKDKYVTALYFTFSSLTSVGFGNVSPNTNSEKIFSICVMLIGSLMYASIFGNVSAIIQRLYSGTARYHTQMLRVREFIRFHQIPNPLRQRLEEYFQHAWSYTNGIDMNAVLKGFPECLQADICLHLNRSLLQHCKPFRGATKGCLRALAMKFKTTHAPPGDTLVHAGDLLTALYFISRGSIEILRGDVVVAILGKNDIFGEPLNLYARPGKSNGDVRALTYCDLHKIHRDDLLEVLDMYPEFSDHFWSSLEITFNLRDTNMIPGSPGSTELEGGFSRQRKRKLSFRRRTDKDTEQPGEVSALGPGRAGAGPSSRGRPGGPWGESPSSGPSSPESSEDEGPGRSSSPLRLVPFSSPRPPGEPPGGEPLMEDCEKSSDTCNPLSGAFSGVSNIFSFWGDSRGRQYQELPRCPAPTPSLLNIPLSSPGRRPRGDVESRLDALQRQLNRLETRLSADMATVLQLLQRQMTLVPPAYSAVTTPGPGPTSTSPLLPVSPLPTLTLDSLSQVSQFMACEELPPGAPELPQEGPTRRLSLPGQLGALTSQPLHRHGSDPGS
For `CC/C(Cc1ccccc1)=N\NC(=O)c1cc(C)oc1C`, the “hERG current change (%, negative = inhibition) at 10uM” value is listed as 2.03%.
To `Cc1ccc(OP(=O)(Nc2cccc(C)c2)Oc2ccc(C)cc2)cc1` belongs 11.5%; to `Cc1ccccc1OCC(=O)Nc1ccc2oc(=O)ccc2c1`, 9.71%; to `CN1CCC(N(C)S(=O)(=O)c2ccc(NC(=O)COc3ccc([N+](=O)[O-])cc3)cc2)CC1`, -7.65%.
To `COc1ccc(NC(=O)c2c(C)nn(Cc3ccccc3)c2C)cc1S(=O)(=O)N(C)C` belongs 14.9%.
The figure for `CCC(=O)NC(=S)Nc1ccc2oc(-c3ccc(OC)cc3)nc2c1` is 18.1%; for `C/C=C/C=C\C(=O)Nc1cccc(C2=NOC3(C2)C[C@@H](C(N)=O)N(C(=O)c2cc([N+](=O)[O-])cc([N+](=O)[O-])c2C)C3)c1` (some centres unmarked) it is 14.1%.
Consider `CC(C)C(=O)NNC(=O)c1cc2sccc2s1`, for which the “hERG current change (%, negative = inhibition) at 10uM” value came to 9.37%.
Regarding `C/C(=N\NC(=O)c1nnn(-c2nonc2N)c1-c1ccc2c(c1)OCO2)c1ccc(C)cc1`, the “hERG current change (%, negative = inhibition) at 10uM” value was determined as 26.1%.
The figure for `O=C(O)c1ccc2c(=O)n3c(nc2c1)/C(=C/c1ccccc1C(F)(F)F)CCCC3` is 4.09%; for `CC(C(=O)c1ccccc1)n1cnc2ccccc2c1=O` (centres unmarked) it is -2.46%.
As to `COc1ccc2c(c1)c(=O)c(C(=O)c1ccc(C)cc1)cn2CC(=O)Nc1ccc(F)cc1`, the “hERG current change (%, negative = inhibition) at 10uM” value is -10.1%.
`COc1ccc(OC)c(CNC(=O)CCn2nc(C)c3c(C)n(-c4ccccc4)nc3c2=O)c1`: the “hERG current change (%, negative = inhibition) at 10uM” value is on record as 4.54%.
Consider `Nc1ccc2sc(N)nc2c1`, for which the “hERG current change (%, negative = inhibition) at 10uM” value stood at 12.2%.
With `COc1ccc(S(=O)(=O)N2CCCCC2)cc1N(C)S(=O)(=O)c1ccccc1`, the “hERG current change (%, negative = inhibition) at 10uM” value is reported as -16%.
In the case of `CCNC(=O)c1cnn(-c2ccccc2)c1-c1ccccc1`, the “hERG current change (%, negative = inhibition) at 10uM” value stood at 14.6%.
On to `Cc1ccccc1NC(=O)c1cnn(-c2ccccc2)c1C`, for which the “hERG current change (%, negative = inhibition) at 10uM” value is recorded as 9.83%.
Regarding `O=C(CN1C(=O)c2ccccc2C1=O)NCCc1c[nH]c2ccc(Cl)cc12`, the “hERG current change (%, negative = inhibition) at 10uM” value is listed as -0.54%.
The figure for `CCC(C)N1C(=O)S/C(=C/c2ccc(Sc3nc4ccccc4[nH]3)o2)C1=O` (centres unmarked) is 13.6%; for `Cc1cc(O)c(Sc2ccccc2)c(=O)o1` it is 9.75%.
To `C/C(=N\NC(=O)c1c(Br)c(C)nn1C)c1cccc(NC(=O)c2ccccc2F)c1` belongs 11.1%.
To `CCC(=O)Nc1sc2c(c1C(N)=O)CCC2` belongs -15.7%; to `CN(C)S(=O)(=O)c1ccc(Cl)c(C(=O)NC2CCCCCCC2)c1`, 7.33%.
Regarding `CCCCCCCCc1nc(=S)[nH][nH]1`, the “hERG current change (%, negative = inhibition) at 10uM” value is on record as 18.7%.
In the case of `Cc1ccc(CNC(N)=S)cc1`, the “hERG current change (%, negative = inhibition) at 10uM” value is listed as -1.2%.
The figure for `O=C1C=C(c2ccc(Cl)cc2)C(=O)N1Nc1ccccc1` is 13.1%; for `CCCCc1c(O)nc(N2CCN(Cc3ccccc3)CC2)[nH]c1=O` it is 1.41%.
To `CC12COC3(C(=O)Nc4cccnc4)CC1CCC32C` (centres unmarked) belongs -9.46%; to `Cc1cc(Br)cc(Cl)c1OCC(=O)N1CCN(C(=O)c2ccco2)CC1`, -63.3%.
For the compound `O=C(CNC(=O)c1ccc2c(=O)n3c(nc2c1)CCC3)Nc1ccc(F)c(F)c1`, the “hERG current change (%, negative = inhibition) at 10uM” value is recorded as -7.44%.
The figure for `CCOC(=O)c1ccc(NC(=O)CSc2nnc(-c3cccs3)n2C)cc1` is -8.2%; for `O=C(CNCC1CCCO1)N1CCCc2ccccc21.O=C(O)C(=O)O` (centres unmarked) it is 1.46%; for `Oc1cccc(/C=N/Nc2cc(N3CCCC3)nc(N3CCCC3)n2)c1` it is 4.43%.
As for `O=C(COC(=O)c1ccccc1OCC(=O)Nc1ccc(Br)cc1)Nc1ccccc1`, the “hERG current change (%, negative = inhibition) at 10uM” value came out at 7.6%.
In the case of `COc1ccc(C(=O)CC(=O)O)c2c1C=CC(C)(C)O2`, the “hERG current change (%, negative = inhibition) at 10uM” value is recorded as 5.95%.
The figure for `Clc1cccc(Cl)c1Cl` is 13.2%.
Regarding `O=c1ccc(-c2nc3cc(Cl)ccc3n2Cc2ccccc2)c[nH]1`, the “hERG current change (%, negative = inhibition) at 10uM” value was -73.9%.
The figure for `COc1c(C(=O)N2CCCC2)ccc2ccccc12` is 1.52%; for `CN(C)CCCNCC(=O)Nc1ccccc1N1CCOCC1.O=C(O)C(=O)O` it is 14.2%; for `NC(=O)N/N=C/c1ccc(-c2cccc(C(F)(F)F)c2)o1` it is -4.87%.
The figure for `Cc1ccc(CSC2=NCCN2C(=O)c2ccc([N+](=O)[O-])cc2)cc1` is -42.9%; for `COc1cccc(CNC(=O)c2cccc(S(=O)(=O)N3CCN(c4ccc(F)cc4)CC3)c2)c1` it is -26%; for `Cc1nn(-c2ccccc2)c(C)c1/C=N/NC(=O)c1cc(-c2ccc(Cl)s2)[nH]n1` it is 3.7%.
Consider `CC(C)C(C(=O)Nc1ccc(S(=O)(=O)N2CCOCC2)cc1)N1C(=O)c2ccccc2C1=O` (centres unmarked), for which the “hERG current change (%, negative = inhibition) at 10uM” value is -16.2%.
